According to the supplement of paper PMC10126150:
Sequences with one replicate were seen in a single cluster, so their values are uncertain.

System: ATP
Assay: switch fluorescence ratio, 500 uM ATP over buffer (Cy3 cluster intensity, sum of 5 cycles each) (fold (ratio)); higher = stronger signal-on switching upon ATP binding; sequences stand for … in TCGTCGGCAGCGTCAGATGTGTATAAGAGACAGTTTTTTTTTTTTTTTTTTTTTTTTT…TC
Details: aptamer strand: ATP DNA aptamer (quencher-CACCTGGGGGAGTATTGCGGAGGAAGG + anchor), 100 nM annealed; ATP concentration: 500 uM; one replicate
Procedure, shortened: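 Five buffer/ATP imaging cycles were run on Cy3-labelled switching-strand clusters on a modified Illumina MiSeq flow-cell, with NaOH stripping and re-annealing between cycles. In each cycle, clusters annealed to 100 nM quencher-labelled ATP aptamer were imaged in selection buffer, then after 15 min with 500 uM ATP at 22 °C. Per cluster, the fluorescence ratio is summed target-cycle over summed buffer-cycle Cy3 intensity, averaged per switch-domain sequence. Only clusters within 100-1000 RFU were kept.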
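Also: ATP exposure 15 min at 22 °C before imaging.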

Row | Sequence | switch fluorescence ratio
1 | TTAGTCAGAT | 1.02
2 | CCGACCGGTA | 2.71
3 | TCACGTGGGC | 0.974
4 | GGCTCCAATG | 1.02
5 | AGCCATGTCG | 0.971
6 | GCGTACGGCT | 1.02
7 | GTATATGCGC | 0.934
8 | CGCGCGTCCT | 1.04
9 | ATGGGCAACA | 1.07
10 | ACCAGCATGG | 0.968
11 | AACGCCTCGT | 1.01
12 | GGTGCGCGTC | 0.981
13 | TCGAGGGGT | 1.04
14 | TTTAAGGGCT | 1.04
15 | ATTTAAAACA | 1.04
16 | TTTACAGTCT | 1.08
17 | ATCTTAAATG | 1.03
18 | ACCATTCCGT | 1.12
19 | ATCTTAGGCA | 0.958
20 | GAGGTTAGTG | 0.937
21 | TAGGCCGACC | 1.07
22 | AAACCAATTC | 1.11
23 | GAGTCTATTC | 1.03

Row | Sequence | switch fluorescence ratio
24 | TCGTTCCTTA | 0.97
25 | TAACATATCG | 0.988
26 | TTATCAAAGA | 1.04
27 | GATGAGTAAA | 0.964
28 | CAAAGCAGCT | 1
29 | AGTTTGCGAG | 0.935
30 | ATCGTTGGAG | 0.948
31 | AGAGAAGTTA | 1.01
32 | GCGAAAGGGG | 0.992
33 | GGCAGTTATA | 0.957
34 | ACGGAACGAA | 1.09
35 | CCTCGTGGAC | 4.37
36 | GACCTGGCC | 1.11
37 | TCGCTGTGTT | 0.975
38 | CAGGACGTGC | 1.06
39 | CTGTTGCTCA | 0.969
40 | ATCTGACTAA | 0.997
41 | GTAGCTCAAC | 1.85
42 | CGGACCCCGT | 1.08
43 | CGGTACAAAC | 1.15
44 | TTGGTCTAT | 1.02
45 | GGATGTTCAA | 0.982
46 | ACTGGCAATT | 1.38

Row | Sequence | switch fluorescence ratio
47 | TATTGATCAT | 1
48 | CGCATTTCTG | 1.1
49 | AGTGCACTTT | 0.994
50 | GAGTTGGTTG | 1.01
51 | GCACACAATG | 1.04
52 | AAACGTGTAT | 0.975
53 | TCAAGCTGC | 1.12
54 | ACTATGTTCT | 1.02
55 | CAAGATTGGG | 1.01
56 | ATATGATCAG | 1.01
57 | TGCTCTAAGT | 0.962
58 | AAGTACTTA | 1.07
59 | TAGCATCGTC | 0.975
60 | ACCGGAGGTT | 1.01
61 | CGGCTCGAGT | 1.01
62 | GCACTAGCCT | 1.02
63 | TAACCTCAC | 1.35
64 | GCACAACACA | 1.22
65 | TCGGTAAGGC | 1.13
66 | CGGTGAATAA | 1.04
67 | TCAGCGGGTC | 0.961
68 | TGAACCCGA | 1.05
69 | CAAACGCTGA | 1.95

Row | Sequence | switch fluorescence ratio
70 | GTTCAAAGAA | 0.96
71 | CCTCGACCAT | 1.45
72 | AAAAAGCGAG | 1.01
73 | TGCTTTGGTC | 0.986
74 | ACATTGGGAA | 0.985
75 | GTGGACAGCA | 0.996
76 | AGGTGCACA | 0.977
77 | TATATGGTGC | 1.07
78 | TCCCTCCCTA | 1.8
79 | AACTTACGA | 1.29
80 | GAACAGGTGG | 1.05
81 | ATATTCAGCA | 0.983
82 | TACGACCCCC | 2.9
83 | TATTCTGGGG | 0.988
84 | CTGAGATTGT | 0.993
85 | GGAGGGTCCG | 0.952
86 | CATTATATTA | 0.97
87 | AGAATACGAT | 1.03
88 | CCACAGCTGT | 1.24
89 | AAAATGCGC | 1
90 | ACGTTGCCTT | 0.998
91 | TATGGTATGG | 1
92 | GCTTAAGAA | 1.01

Row | Sequence | switch fluorescence ratio
93 | GTCAGCCGGT | 1.01
94 | AGGAGGAAAC | 1.02
95 | ATACCCCTTG | 1.05
96 | TAATGGGAG | 0.991
97 | AAATTCCCGC | 1.16
98 | AATGCTCAGC | 1.07
99 | AGAGTGAGA | 1.02
100 | TTGGGAATCG | 0.977
101 | GGCTTTGCCT | 0.989
102 | TCGGTAGTCG | 1.04
103 | CTCTCAAAAT | 2.22
104 | AAAGGGCCCG | 1.13
105 | GGATCAGCGG | 1.06
106 | CATGCCCGCG | 1.02
107 | CGATAATGCG | 1.09
108 | CTCCACGTAT | 1.12
109 | GGGAAATTAA | 0.968
110 | TAAGAGCGAA | 0.971
111 | ACGCAACAGG | 1.55
112 | CTGTGCCACG | 0.977
113 | TTGTGGTTCT | 0.973
114 | GATTCCTTAA | 1.02
115 | GAGCTAACAG | 1

Row | Sequence | switch fluorescence ratio
116 | ACACTATTCG | 1.04
117 | TACATTGTAC | 1.14
118 | GCCGTACTTG | 0.99
119 | TTCAAAGTGT | 1.09
120 | AACCGTCCCG | 1.55
121 | CATAAAGGGG | 0.992
122 | AACGGATTCC | 1.05
123 | ATACTTTGAC | 1.04
124 | GAATCCACGC | 1.12
125 | TGTGAGTCCT | 0.947
126 | GATACCTATC | 1.01
127 | CGGCAATGCT | 3.43
128 | TCGCATGGGT | 1
129 | GTGCCTGATC | 1.16
130 | CCTGACACT | 1.01
131 | TGTTACTGGA | 0.939
132 | CTAGAATTCT | 0.98
133 | GCATAGGAGT | 1.05
134 | CCGTCAGTGT | 1.19
135 | GTTTTTAAGC | 0.953
136 | TAGCAGCTCA | 0.948
137 | GAGATATCGG | 1.02
138 | ATACACAGGG | 1.11

Row | Sequence | switch fluorescence ratio
139 | TAGCTCCATC | 1.05
140 | GGGTTGATCC | 0.963
141 | CATATGGGCC | 1.03
142 | TTCGTGACCG | 0.989
143 | CTAAAATAGG | 1.05
144 | GTGACTGATA | 1.01
145 | GGCTTAAGAC | 1
146 | GCATGTGCGG | 0.962
147 | ACGTCAGGAC | 1.58
148 | ATGCTTGACT | 0.984
149 | CTATTCGTGT | 0.995
150 | GCGCACAGTA | 1.01
151 | GTCTGATCTC | 1.03
152 | ATTATGAGG | 1.02
153 | TTAAGGTGCC | 1.03
154 | AGCGAATCGG | 0.987
155 | AACCGACTTT | 1.12
156 | GGAGCTTAAA | 1.01
157 | AATCAGGTTT | 1.04
